# Laboratory results reported in the antibiotic and cytotoxicity screens of Wong et al. (2023).
# The list shows a part of the results.
# Tested on: HepG2
# Experiment: cytotoxicity call (relative viability < 0.9)
# Details: 10 µM
row,Compound,cytotoxicity call
1,C[C@@H]1CN([C@@H](C)CO)C(=O)c2cc(NC(=O)Cc3ccccc3)ccc2O[C@@H](C)CCCCO[C@H]1CN(C)C(=O)Nc1cccc2ccccc12,inactive
2,O=C(O)C1(O)CC(O)C(O)C(O)C1 (stereo not given),inactive
3,COc1ccccc1C#Cc1cnc2c(c1)C(=O)N([C@@H](C)CO)C[C@H](C)[C@H](CN(C)C(=O)c1ccc3c(c1)OCO3)O2,inactive
4,COCCOC(=O)N1C(=O)[C@@]2(c3cc(C#CC4=CCCCC4)ccc31)[C@H](c1ccc(O)cc1)N1[C@H](c3ccccc3)[C@H](c3ccccc3)OC(=O)[C@H]1[C@@H]2C(=O)N1CCN(c2ncccn2)CC1,inactive
5,NC(=O)[C@@H]1C(=O)C[C@@H]2C[C@@H]3Cc4cccc(O)c4C(=O)[C@@H]3C(=O)[C@]2(O)C1=O,inactive
6,Cc1noc(C)c1S(=O)(=O)Nc1ccc2c(c1)CC(=O)N([C@@H](C)CO)C[C@@H](C)[C@H](CN(C)S(=O)(=O)c1ccccc1)O2,inactive
7,COc1ccccc1-c1ccc2c(c1)O[C@@H](CN(C)CC1CCOCC1)[C@@H](C)CN([C@H](C)CO)S2(=O)=O,inactive
8,C[C@@H]1CN([C@@H](C)CO)C(=O)Cc2cc(NC(=O)Nc3ccc(F)cc3)ccc2O[C@H]1CN(C)Cc1ccc(Cl)c(Cl)c1,active
9,O=C1CCCCCN1,inactive
10,O=C(C[C@H]1C[C@H]2c3cc(NS(=O)(=O)c4ccc(F)cc4)ccc3O[C@H]2[C@@H](CO)O1)NCc1ccccn1,inactive
11,CCc1c(C(=O)OC)nnc2cc(C)nn12,inactive
12,C[C@@H]1CN([C@@H](C)CO)C(=O)c2cccc(NC(=O)C3CC3)c2O[C@H]1CN(C)C(=O)Nc1ccc2c(c1)OCO2,inactive
13,CO[C@H]1CN(C)C(=O)c2cc(NS(C)(=O)=O)ccc2OC[C@H](C)N(C(=O)c2ccc3c(c2)OCO3)C[C@@H]1C,inactive
14,CC=CCC(C)C(O)C1C(=O)NC(CC)C(=O)N(C)CC(=O)N(C)C(CC(C)C)C(=O)NC(C(C)C)C(=O)N(C)C(CC(C)C)C(=O)NC(C)C(=O)NC(C)C(=O)N(C)C(CC(C)C)C(=O)N(C)C(CC(C)C)C(=O)N(C)C(C(C)C)C(=O)N1C (stereo not given),active
15,CCCC(=O)Nc1ccc2c(c1)OC[C@H](C)N(S(=O)(=O)c1cn(C)cn1)C[C@H](C)[C@@H](OC)CN(C)C2=O,inactive
16,C[C@H](CO)N1C[C@H](C)[C@@H](CN(C)C(=O)Nc2ccc3c(c2)OCO3)OCCCC[C@H](C)Oc2ccc(NS(=O)(=O)c3ccccc3)cc2C1=O,inactive
17,CCCNC(=O)N1C[C@]2(CCN(CC2)S(=O)(=O)c2cccc(c2)OC)c2c(n(c3cc(ccc23)OC)C)[C@H]1CO,inactive
18,C[C@H]1CCCCO[C@H](CN(C)S(=O)(=O)c2cccs2)[C@@H](C)CN([C@@H](C)CO)C(=O)c2cc(NC(=O)Cc3ccccc3)ccc2O1,inactive
19,C[C@H](CO)N1C[C@H](C)[C@@H](CN(C)S(C)(=O)=O)Oc2ccc(NC(=O)Cc3cn(C)c4ccccc34)cc2CC1=O,inactive
20,Nc1ccn([C@@H]2O[C@H](CO)[C@@H](O)[C@@H]2O)c(=O)n1,inactive

row,Compound,cytotoxicity call
1,COc1ccc(S(=O)(=O)N(C)C[C@@H]2OCCCC[C@H](C)Oc3ccc(NC(=O)Nc4ccc5c(c4)OCO5)cc3C(=O)N([C@H](C)CO)C[C@@H]2C)cc1,inactive
2,NCCCN1CCCN(CCCN)CC1,inactive
3,C[C@@H]1CN([C@@H](C)CO)C(=O)c2cccc(NC(=O)Nc3ccc4c(c3)OCO4)c2O[C@@H]1CN(C)Cc1ccc(C(F)(F)F)cc1,inactive
4,C[C@@H]1CCCCO[C@@H](CN(C)C(=O)Nc2cccc3ccccc23)[C@@H](C)CN([C@H](C)CO)C(=O)c2cc(NC(=O)Nc3ccc(F)cc3)ccc2O1,inactive
5,C[C@@H]1CN([C@@H](C)CO)C(=O)c2ccccc2-c2ccccc2CO[C@@H]1CN(C)S(=O)(=O)c1ccc(C(F)(F)F)cc1,inactive
6,C[N+](C)(C)CCCCNC(=O)[C@H]1C[C@H]2C(=O)N[C@@H](Cc3ccccc3)C(=O)N2[C@H]1c1cccc(OCCO)c1,inactive
7,C[C@@H]1CN([C@H](C)CO)C(=O)c2cc(NC(=O)Nc3cccc4ccccc34)ccc2O[C@@H](C)CCCCO[C@H]1CN(C)C(=O)C1CCCCC1,inactive
8,C[C@H](CO)N1C[C@H](C)[C@@H](CN(C)C(=O)Nc2ccc(F)cc2)Oc2ccc(NS(=O)(=O)c3cn(C)cn3)cc2CC1=O,inactive
9,CS(=O)(=O)CCCCN=C=S,inactive
10,CC(C)N1C[C@H](C)[C@@H](CN(C)Cc2ccc(Cl)cc2)Oc2c(C(=O)Nc3ccncc3)cccc2C1=O,inactive
11,Cc1cc(C)nc(SCC(=O)NN)n1,inactive
12,COc1ccc(S(=O)(=O)N(C)C[C@H]2Oc3ncc(-c4ccncc4)cc3C(=O)N([C@H](C)CO)C[C@H]2C)cc1,inactive
13,CC(C)NC(=O)N(C)C[C@@H]1OCCCC[C@H](C)Oc2ccc(NC(=O)Nc3ccccc3)cc2C(=O)N([C@H](C)CO)C[C@@H]1C,inactive
14,C[C@@H]1CN([C@H](C)CO)C(=O)Cc2cc(NC(=O)Nc3cccc4ccccc34)ccc2O[C@@H]1CN(C)S(=O)(=O)c1ccc(F)cc1,inactive
15,Cl.Cl.Cl.NCCCCNCCCN,inactive
16,CN1C(=O)[C@H]2CN(C)c3ccccc3[C@H]2C1=O,inactive
17,O=C(C[C@@H]1CC[C@@H]2[C@H](COC[C@H](O)CN2S(=O)(=O)c2ccc(F)cc2)O1)N[C@H]1CCN(Cc2ccccc2)C1,inactive
18,C[C@H]1CCCCO[C@H](CN(C)C(=O)Nc2cccc3ccccc23)[C@@H](C)CN([C@@H](C)CO)C(=O)c2cc(NS(=O)(=O)c3ccc(Cl)cc3)ccc2O1,inactive
19,CC(=O)NCC(=O)N1C[C@H](N(C)Cc2cncnc2)[C@@H]2OCCC[C@@H]21,inactive
20,C[C@@H]1CCCCO[C@@H](CN(C)C(=O)NC2CCCCC2)[C@H](C)CN([C@H](C)CO)C(=O)c2cc(NC(=O)CCC(F)(F)F)ccc2O1,inactive
